Reference: the RNAGym collection of RNA variant scans (doi:10.7554/elife.90254)
Read counts are not given, so values of variants with three or more changes are uncertain.

B1: OR4K15 (parent)
chain: GUUAACGGUCAUAGGCCAUGGAAACUAGGAGCACCAUUUCGCUGCCAGUGAAGAAAUGAACAAAGAAAAUCUGGGCCAGGCAGGCAUCAAAAGAAAUAGUCUUGCGCUCAACCAGAAAGUCUGUAAUCAUUUUAAGGGUA

Variants of: B1
Assay: self-cleavage, relative activity (ratio to wild type); higher = more cleavage; in vitro, sequencing; the parent is a self-cleaving ribozyme

Variant	self-cleavage
A5G U57C G137A	1.78
G7U A11G A22G U108C	0.04
C6U A69G A135G	0.87
A5G U49C A60G A69G A118G	0.15
C6U U70A A78G U108A	0
G7U A27G U72C A91G	0.18
A5G U49G A66G U72C U120C	0.11
G7A U43C A47G U57G A90G	0.73
C6U A27G C61U	0.78
G7A A24G A69G A111U U131A	0.07
A5U A36U A68C	1.29
C6U U43C A54G U87C U103C	0.6
A5U A23G A90G A118G	0.5
A5G U43A C128U	0.97
G7A A60U A68G U100G A114U A116G A140G	0.01
A5G U43A A52G U102A	0.3
A5U U57C U133A	0.69
G7U A62G A64G	0.99
A5U A51G C61U A92G U120A	2.44
A5G U70C U87C	1.39
C6U A11G U43C A68G	0.79
G7A A18U A24U	0.82
C6U A22U U37C U39C	0.85
A5G U39C A110G	0.37

Variant	self-cleavage
A5G U49C U100C A134C	1.18
A5U U102C U127C	1.58
A5U U12C U37C U87A U97A	0.54
G7A A118G U139C	2.58
A5U U57C A90G A114U	0.04
A5U G7A A24G U43C A56G G84A	1.32
A5G U108C A135U	0.04
G7A C88U G136A	1.75
G7U A64G A111G	0.03
A5U A47U A69G A82U	0.25
A5U A60G U103C	0.9
A5G U43C A89U A116G A129G	0.74
A5U A18G A94G	0.9
C6U A52U A62G A66G	0.89
G7A G14A A94G	1.17
G7U U9C A51U A78G A98G U122A	0.06
C6A U9A A18G U72A	0.12
A5G U43C A55U	0.18
C6A A94G A116U	0.02
A5U A126G U131G	0.53
A5G U49C U108C	0
G7A A125G U131C	0.42
A5G U70C A89G	0.99
A5U A11G A82U	0.22

Variant	self-cleavage
A5U A51G A60G	0.93
G7A A13U A18U U37C A94G C109U U133A	0.37
A5G U57C A62U A69G U72C C76U A89U	0.19
A5U G8A A24G A54U A62G U103C	0.55
C6A A22G A36C	1.03
C6U A51U A54G A60G	0.79
A5U U9C A114U	0.11
C6U A47U U70A	0.47
A5G U72C A86G A95U A110G	0.04
G7A A22G A69G U139C	1.31
G7A G104A A116G U133C	0.02
G7A A24C U39C A69G	1.14
A5G U49A A55G A92G U122C G123U	0.82
C6U A59C G115A	0.07
G7A A52G A66G	1.9
A5U U19C U26A A54G A89G	0.89
A5U U9C A22G U57C U103C	0.24
G7A A30G A110G	0.15
C6U A51G A62G U131C A134G	1.51
A5U A86G A125G	0.36
G7C A24G A91G A94G A114U U122C	0
C6U U38A U122C	0.66
G7A U19C A55G A59G A69G A140G	0.63
A5U U12C A18G U43C A62C	1.18

Variant	self-cleavage
G7U A23G U39A A90G	1.83
C6A U37C U39C A118G	0.8
C6U U72C A95G A140G	0.9
A5U A36G A64G	1.05
C6A A60G G75A U130C	0.06
G7C C42A A52G	1.25
G7A U9G A27G A30G A69U	0.63
A5U A60U A89G A114G	0.43
A5U G73A U127C	0.22
C6U A22G A30G A64G	0.91
A5G U103C A116G	0.41
G7U A51G U100C	2.22
A5G U49C U87A	0.69
C6U A91G A94G	1.13
G7U A11G U100C A125G	0.41
G7A U49C A51G A59G A126G U131C	0.07
C6U A51U U57A A114G G137A	0.41
G7A A13G A63G	1.13
G7A A118G U131C	0.7
A5U A22G A30G	0.43
A5U A82G A92G	0.55
C6U A51G A55G A114G A118U	0.04
G7A A27U U70C	0.81
A5G U49C U87C A94G	1.32

Variant	self-cleavage
G7U A67G A86G	0.31
C6U G28C A36G	2.16
G7U A23G A30G A82U G123U	0.42
G7A A51G A67G A82U A111G	0.02
G7A A54G A67G C109A	0.31
A5U U12C G58A U120C	2.34
G7A U49A A56G A94G	0.53
A5U A66G A86G G99A U103C	0.04
G7A U72C G104C A114U A118G	0.01
C6A A59G U122A	0.2
A5G U57C C128A	0
A5U A51U U57C U87C	0.89
G7A A56G U100C	2.6
G7A U43C A68G G75A	0.12
A5G U72A A82G	0.11
A5U A52G A78C	0.12
G7A A22G A86G A90G U130C	0.14
C6A U72C U127C	0.15
G7A U57C A94U	1.63
C6U A62G U100A U103C G137A	0.14
A5G U39C A140G	1.08
A5G U39C A47G A56G A78G	0.21
G7A A51G A63G U87A	1.75
G7A U39A A68G A86G A110G	0.15

Variant	self-cleavage
A5G U39C A62G U120A	0.78
A5G U70A A78G	0.5
G7A A78U U122C	0.24
C6A G7C A78U	0.68
A5U A66C A98U	0.62
C6U A82U U122C	0.1
G7A A82G U87G U122C	0.14
C6U A11G A13G A114U	0.12
C6G U12A U38C	1.29
A5G U43G A51G	1.07
C6U U72C U108A	0.04
A5U A69G U122C	1.34
A5G U57C G104U	0.11
G7A U70C A96G A111U	0.05
C6U A47G A78G A94G	0.37
G7A A66C A89G	0.3
C6A A64C A92G A114U	0.01
G7U A68G U72A	0.5
A5G U39C A54U	1.18
A5U A55G U103C A129U	0.6
A5U A13U A54G A110G	0.44
G7A A69G U72C A110G	0
C6U A89U A134G	1.07
G7A A33G C42U A47U A94G	0.58

Variant	self-cleavage
A5G U49C A69G A78G	0.05
A5U A47G A54G U100C	2.06
G7A A62G A67G A69G U72C U97A U120C	0.08
A5U A47G U49A A140U	0.6
G7A A11U A23G A89G U108C A118G	0.01
G7A A59G U103C U120C U139C	0.18
A5U A18G A30G U37C G106C U108C A118G U122A	0.02
C6U U70C U102A C112G	0.03
G7U C40A A67G G115A A118G U122A	0.01
A5U A60G U87C U102C A114G	0.04
A5G U49C A63U U100A	0.37
A5U A18G C121U A129G	1.76
A5U U49C A82G A86G A89C	0.08
G7A A51U U70C U122C	1.2
C6U A23G G53U C77U	0.99
A5U A13U A67G	1.25
G7U A36U A110G G136A	0.25
G7A A18G A30U A36U	0.96
A5U A60G A68G A95G A126G	1.02
A5G U39A A55G A82G A96U U102C	0.7
A5U A22G A30G U132A	0.43
A5U A30G A63G	1.12
G7C A86G U122C	0.68
